Data from the supplement of paper PMC11417369.
The list shows a part of the results.

Test system: PfSIP2 AP2 domain 1 (GST-tagged)
Experiment: gcPBM binding intensity (ln(normalized median fluorescence intensity)); higher = stronger DNA binding
How it was run: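 Probes on an Agilent 4 × 180k array were primer-extended, double-stranded and 36 bp long, taken from intergenic genomic regions, with negative controls added. GST-tagged P. falciparum DNA-binding domains from E. coli, about 25 μg on average, were applied to the array for 1 h in 1× PBS containing 1% milk, 0.2 mg/ml BSA, 0.5% salmon testes DNA and 0.03% Triton X-100. Binding intensity, obtained after Alexa488 anti-GST antibody detection and a 488 nm scan, is the highest Masliner-normalised natural-log median intensity across replicate spots of either probe orientation.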

Sequence | gcPBM binding intensity (ln)
TTATATAAAGAATGTACACACAGAAATGCACCCACA [CACACA_site2282] | 12.2
TTATATTTATAAAGGTGTACCTTAAAATGATTTTAC [XGTACX_site3774] | 6.82
AAAATTAAATAAAAATGTACAGAAATATTATATGAA [XGTACX_site5695] | 7.11
ATATATTATATTAATTGTACATAAAAAAGAGAAAAA [XGTACX_site3366] | 7.08
CCAAAAAATATATGTAGTACTACATTATTAAATATG [XGTACX_site5128] | 7.32
ATAATATCTTCTTTTTTTTTTTTTTTTTTTTTTTTT [CACACA_negctrl_site1005] | 8.6
AAAAAAAAAAAAAAAAGTACATATATATATAATTAT [XGTACX_site7836] | 7.42
AAATGATGCATTTGTCATTAAAATTGTGAAATATTA [CACACA_negctrl_site231] | 6.75
ATATATATATAATGTGTACACACATATGTATTTATA [CACACA_site8170] | 8.99
TAATTAAGATGATAAAAATTGAAAAAACAATTTTAA [CACACA_negctrl_site658] | 6.61
TATAATAAAATATGTACACACATACAGACATATATA [CACACA_site6693] | 7.39
AGAGTATATAAAGTAACACACAATAAAATAAAATAA [CACACA_site2328] | 6.9
CATATAGTATAAATTTGTACATAAATATATATATAT [XGTACX_site7477] | 8.69
TACATACACGGACACACACACATATATATATATATA [CACACA_site5883] | 9.4
AAGAAATATATATATATATATATATATATATATGTA [TGCATGCA_negctrl_site442] | 8.04
TAATTTTATATTAAAAGTACATAATAAAAACTATAA [XGTACX_site8779] | 6.99
TTTAAAAACAAATATTGTACAAATTAAAATATATCA [XGTACX_site7220] | 6.99
AGAGCATAATAAAACACACACATACATACAGATATA [CACACA_site4671] | 7.08
TGATGATATAAAAACACACACATATAATATAATACT [CACACA_site1208] | 6.88
CACTAATATATATACAGTACATAATAAAGTATATAA [XGTACX_site6875] | 6.95
CTGTTTTACTTTAGTAGTACAATAAAAATATAAAAA [XGTACX_site2934] | 7.59
TATTACCCATATTATACACACATATATTATATATAT [CACACA_site1567] | 7.75

Sequence | gcPBM binding intensity (ln)
AAAAAAAAAAAACATACACACAAATATATACATACA [CACACA_site4011] | 6.99
TAAATTTGTGGGATTTCACACAGGTTTATTTACATT [CACACA_site5455] | 6.42
ATGTAGGTTAATTATTGTACGTAGGGGGTGTATATT [XGTACX_site3973] | 8.23
TTCAGAGAATAAAAATGTACATATAATATTTTAAAA [XGTACX_site577] | 6.73
CTCTTGTCATTTTGCACACACACATGTATAGGTTAT [CACACA_site3057] | 8
TTTCTAATTTATATCACACACATATATTTATAGTAA [CACACA_site6280] | 7
GTTTACTAATATTGCACACGAATATGAAAAAGAGAA [CACACA_site2897] | 7.61
TTGCTTATTAAATGGGGTACATTATATATATATATA [XGTACX_site2515] | 8.8
GTGTTAACTATTATGAGTACTTATGTATTAATTCAT [XGTACX_site7767] | 7.34
ATTTATTTATACAAAGTGCAATATTTTGTTAAAGTC [GTGCAC_site9618] | 7.89
AAACAAAATATGGTTCATGAGCAAAAGTTTATTTTG [XGTACX_negctrl_site531] | 6.7
AATGTAAAATATAAATGTACATATATATATATATAT [XGTACX_site5071] | 9.17
CTCTTTTCTTATAATACACACAGTAATATATATATA [CACACA_site1520] | 8.57
TATAAAATACATTTATAATATATATATATATTTTTT [TGCATGCA_negctrl_site435] | 7.13
ATATGAAATATATAAATATGTTTATATATATATATA [GTGCAC_negctrl_site94] | 9.1
TGTGTTTATACGTTTTGTACATATTTTTATTTTGTA [XGTACX_site6425] | 6.91
TTTACATCAACCTTTTCACACATTCATATACAGATA [CACACA_site6152] | 7.29
TTCAAAAAATAAAATAATAATATATATATAAATATA [XGTACX_negctrl_site84] | 6.65
TCATTAAAGGAAAAATGTACGTATAAATAAATATAT [XGTACX_site2587] | 7.07
TTTTTTATATTTAAACTTCACATGGTTTTCATTTAT [XGTACX_negctrl_site291] | 6.85
ATACATATATATATATGTACACATAAACATGAGTGA [XGTACX_site3200] | 7.27
TAATGGAAACCATTTATTTTCTGCAATATATTTTTT [CACACA_negctrl_site1653] | 6.58

Sequence | gcPBM binding intensity (ln)
ATACATAAAATTAAAACACACATTTTATTAAATACG [CACACA_site2167] | 6.91
AGTTATATGGTTAATACACACAACAAATGTTTCTTC [CACACA_site6642] | 6.91
GTGTGATGGTACAATATACACACTTAAAAAAAAAAA [CACACA_site8769] | 7.04
AAAAAATATATTTGCACACTCAAAAAAAAAAAAAAA [CACACA_site859] | 7.3
TACCTAATATGTTATACACACATTATAAGTACATAT [CACACA_site7206] | 7.23
AATATAACTTAGAATTGTACATAAAAAAAAATATAT [XGTACX_site3313] | 7.12
TAAGAAATAAATAGTACACACATAGACACACGCACA [CACACA_site6821] | 8
TTTTGTTTAATATTCACACATATATATTTTTTATTT [CACACA_site5496] | 7.17
CTTTTTATTTAGGAGGTGCATGTAATACGGAACATA | 10.9
ATTTGTTATATATTCTTTTATGTTAATAATTCGAAT [CACACA_negctrl_site378] | 7.07
GATCTATACATGGGGACACACATCACTCTATATTTT [CACACA_site3408] | 7.33
TATGAATAAAAAAGAAGTACAAATTATATGAACGCA [XGTACX_site3018] | 7.25
AAAAAATACAAACACACACACACACCCATATATATA [CACACA_site3560] | 7.52
CATACTGTTATAAAATGTACGCATATACACACACAT [XGTACX_site7256] | 7.26
TACATATTTTGTATATATTATTTATTTTATTAGTTT [XGTACX_negctrl_site85] | 6.74
TTCTGACTTGTTATAATTTGTATATCCGAAAAAATT [TGCATGCA_negctrl_site456] | 7.04
ACTATTATTAAAAATTGTACTTTCTATAAATTTTTT [XGTACX_site7825] | 7.14
ATTTTGTGTAGTGATGCATGTTATATATATATTTGA [TGCATGCA_site422] | 7.33
AGAAACATATGGTAGTGTACTGTAAATTTATTCTTT [XGTACX_site8602] | 6.93
TTTTATCAAATATTTATTTTATACATAAATATTTAT [XGTACX_negctrl_site528] | 7.06
ATAACATCAGTATTATGTACATATGTAGGTAAATAA [XGTACX_site7066] | 7.26
TTTTATTGTTTTTTTTTTTTTTCTTTTTTTTTTTTT [CACACA_negctrl_site1094] | 7.24

Sequence | gcPBM binding intensity (ln)
CGTTATTATACACATACACACAGGAATAAAAAATTA [CACACA_site7373] | 7.29
ATTATTATATTTATATGTACATAGAAAAAATTAAAT [XGTACX_site2058] | 7.42
AAAGTGGCCATATATTTTTTTTTTTTTTTCCTTATT [CACACA_negctrl_site485] | 6.7
AAAAATAAAGGATATACACACTAATTATATATATAT [CACACA_site5550] | 8.77
TCAGATATATATATATAAATATATATTTTGAAATGT [CACACA_negctrl_site686] | 7.13
TAGTATCCAAGAAAAAGTACTTATTTTAATTTTTTA [XGTACX_site6243] | 6.73
AATATTTATAAAGACACACAAACAAAAAGGATAAAA [CACACA_site2985] | 7.41
TCATTTAAGTAGACGCGTACGGAAATTACGAATCCT [XGTACX_site144] | 6.61
TTTTTTTTTTGTTGAGTGCAATTATTTGTAAGAAAA | 8.17
AAATTAATATATAAAAGTACCCATATATTTAATATA [XGTACX_site3551] | 6.93
AGTTTGTTTTTTTTTTTTTTTTCCTGTCACAAACAA [CACACA_negctrl_site1093] | 6.98
TCTCCACCTCTCTTGGTGCGTTATACCCTCGAGGCT | 8.65
TATAACAAAATATTCACACATATAAGTAAATAAAGG [CACACA_site5777] | 7.23
TCAAAGCACCCATACACACACATATATATATATATA [CACACA_site4317] | 9.71
GTCATATATATATGTACACACATATATATATTTATA [CACACA_site1459] | 7.07
GTACGTTACATAAATGTGCACATATTATATGCGAAG | 9.38
AAGACTGCACTTTAAGCACACAAATATATTTTTTTT [CACACA_site8337] | 8.18
AAGAAAAAAATTTAATTAAATGAAATTTTTGAATTA [TGCATGCA_negctrl_site25] | 6.51
TGATAAAATGGGGAAATTCATTATATCATATCTTGG [CACACA_negctrl_site789] | 6.62
TTGGATAAAAAATATGTACACACATATAGATATCTA [CACACA_site8862] | 6.95
ATTATATTAAAATACACACCCAAATATTAAAAAGAT [CACACA_site5613] | 7.47
TTTGAAATATTAAATGCATGTTAAAACATAAAAATG [TGCATGCA_site680] | 7.05
